Test results: paper PMC4207660, “Identification and Characterization of Hundreds of Potent and Selective Inhibitors of Trypanosoma brucei Growth from a Kinase-Targeted Library Screening Campaign” (PLoS Neglected Tropical Diseases, 2014)
≈ marks a conversion by molar mass, not a printed value. Read-outs that look alike come from different tables or passages of the source.

Key:
[1] = test system: T. brucei brucei parasites (Lister 427 strain); experiment: Dose response growth inhibition assay (resazurin, 72 h); format: cell-based; details: Trypanosoma brucei; T. b. brucei growth inhibition; read-out: Tbb pEC50 (converted)
Experimental: Greiner sterile black clear bottom 384-well assay plates were pre-dispensing with 200 nL of compound in each well, from master plates at 1 mM (100% DMSO) containing selection from the GSK compound collection. Controls of 0% response (control 1, 200 nL of 100%DMSO) and 100% response (control 2, 200 nL of 1 mM pentamidine) were included in each assay plate in columns 6 and 18, respectively. Plates containing 200 nL of 100% DMSO were included randomly in the assay, to assess quality through all process. […] After this period, 10 µL of 200 µM resazurin solution in prewarmed HMI-9 were added to each well, and plates were allowed to incubate 2 hours more prior fluorescence reading in a Wallac EnVision Multilabel Plate Reader (Perkin-Elmer). Raw fluorescent data from the Envision plate reader were uploaded into GSK HTS database (ActivityBase). Activity of each well was normalized as a percentage of inhibition per-plate basis using the following equation: [drawing 1]
For dose-response experiments, serial compound dilutions of selected hits from the primary campaign were plotted against compound concentration. Dose response master plates were prepared by 3-fold dilutions (starting with 10 mM DMSO stock solutions), providing 11 concentrations. From these master plates, 200 nL per well was stamped in final assay plates, including the same controls describe in the primary single shot assay. Compounds were dispensed as serial dilution curve format, with 11 points at 3-fold dilution and 40 µM as starting top concentration (n = 2). Growth inhibition assay was performed as described in previous assay.
A 4-parameter equation describing a sigmoidal dose-response curve was then fitted with an adjustable baseline using ActivityBase XE Runner software. Fitting of dose-response curves and EC50 determination were normalized as percentage of inhibition based on controls. The curve-fit model was based on a 4-parameter equation: [drawing 2]
Trypanosome cell culture. […]

[2] = CLND kinetic solubility assay; format: physicochemical; details: phosphate buffered saline, pH 7.4, aqueous buffer, kinetic from dmso stock; Measured; read-out: Aq Sol
Experimental: 5 µL of 10 mM DMSO stock solution was diluted to 100 µL with pH 7.4 phosphate buffered saline, equilibrated for 1 hour at room temperature, filtered through Millipore MultiscreenHTS-PCF filter plates (MSSL BPC). The filtrate was quantified by suitably calibrated flow injection Chemi-Luminescent Nitrogen Detection.

ChromlogD assay = experiment: ChromlogD assay
Experimental: The Chromatographic Hydrophobicity Index (CHI)[22] values were measured using reversed phase HPLC column (Luna C18 (2), Phenomenex, UK) with a fast acetonitrile gradient at starting mobile phase of pH = 7.4. CHI values are derived directly from the gradient retention times by using a calibration line obtained for standard compounds. The CHI value approximates to the volume % organic concentration when the compound elutes. […] The average error of the assay is ±3 CHI unit or ±0.25 ChromlogD.

[3] = molecular target: T1, Human Serum Albumin (HSA) (Homo sapiens, UniProt P02768); experiment: Protein binding assay (HPLC stationary phase), HSA; format: in vitro ADME; details: Measured
T1 construct: purchased Chiral Technologies, France
Experimental: Chemically bonded Human Serum Albumin (HSA) and Alpha-1-acidglycoprotein HPLC stationary phases (Chiral Technologies, France) were used for measuring compounds' binding to plasma proteins, applying linear gradient elution up to 30% iso-propanol. The run time was 6 min, including the re-equilibration of the stationary phases with the 50 mM pH7.4 ammonium acetate buffer. The obtained gradient retention times were standardised using a calibration set of mixtures as described in the references. The average standard error of the assay depends on the binding strength and kinetics of the compounds.

Cytochrome P450 (CYP450) = Cytochrome P450 (CYP450) (Homo sapiens, UniProt P08684); experiment: Cytochrome P450 inhibition profile; format: in vitro ADME; details: Measured
Experimental: The P450 inhibition profile of the inhibitors was determined as previously described.

solubility kinetic at 1 h [2] [µM] | PFI (ChromlogD assay) | HSA % binding [3] [%] | IC50 (Cytochrome P450 (CYP450); CYP3A4, VG substrate, read-out: CYP3A4VG pXC50 (converted)) [nM] | IC50 (Cytochrome P450 (CYP450); CYP3A4, VR substrate, read-out: CYP3A4VR pXC50 (converted)) [nM] | SMILES | EC50 [1] [nM]
232 (≈ 68.1 µg/mL) | 5.71 | – | – | – | CNC(=O)Nc1sc(-c2cccc(F)c2)cc1C(N)=O [NEU-0001221] | 1000
– | – | 84.7 | – | – | Cc1[nH]nc(Nc2ccnc3[nH]ccc23)c1C [NEU-0001225] | –
– | 8.35 | – | – | – | NC(=O)c1cnc2cc(-c3nccs3)ccc2c1Nc1ccc2cn[nH]c2c1 [NEU-0001223] | 100
– | – | – | 501 | 31.6 | Nc1ncc(-c2cccnc2)c2scc(-c3ccc4cn[nH]c4c3)c12 [NEU-0001220] | 251
